# Results published in PubChem BioAssay AID488969 (Vanderbilt High Throughput Screening Facility, 2010).
# Over roughly 110,000 compounds, “z-score” has its median near -0.1; the highest 2% begin near 2. The list shows a part of the results.
# Target: Metabotropic glutamate receptor 8 (Rattus norvegicus) (UniProt P70579)
# Assay: rat mGluR8 modulators via GIRK flux, primary screen, cell-based, thallium flux, HTS (AID 488969)
# Settings: HEK293 rat mGluR8, GIRK (G protein-gated inwardly rectifying potassium channel) thallium flux, FluoZin2; at 10 µM; stronger effect = higher value; submaximal glutamate (EC20) added with thallium
# Chain of UniProt P70579 (P70579 whole entry, looked up): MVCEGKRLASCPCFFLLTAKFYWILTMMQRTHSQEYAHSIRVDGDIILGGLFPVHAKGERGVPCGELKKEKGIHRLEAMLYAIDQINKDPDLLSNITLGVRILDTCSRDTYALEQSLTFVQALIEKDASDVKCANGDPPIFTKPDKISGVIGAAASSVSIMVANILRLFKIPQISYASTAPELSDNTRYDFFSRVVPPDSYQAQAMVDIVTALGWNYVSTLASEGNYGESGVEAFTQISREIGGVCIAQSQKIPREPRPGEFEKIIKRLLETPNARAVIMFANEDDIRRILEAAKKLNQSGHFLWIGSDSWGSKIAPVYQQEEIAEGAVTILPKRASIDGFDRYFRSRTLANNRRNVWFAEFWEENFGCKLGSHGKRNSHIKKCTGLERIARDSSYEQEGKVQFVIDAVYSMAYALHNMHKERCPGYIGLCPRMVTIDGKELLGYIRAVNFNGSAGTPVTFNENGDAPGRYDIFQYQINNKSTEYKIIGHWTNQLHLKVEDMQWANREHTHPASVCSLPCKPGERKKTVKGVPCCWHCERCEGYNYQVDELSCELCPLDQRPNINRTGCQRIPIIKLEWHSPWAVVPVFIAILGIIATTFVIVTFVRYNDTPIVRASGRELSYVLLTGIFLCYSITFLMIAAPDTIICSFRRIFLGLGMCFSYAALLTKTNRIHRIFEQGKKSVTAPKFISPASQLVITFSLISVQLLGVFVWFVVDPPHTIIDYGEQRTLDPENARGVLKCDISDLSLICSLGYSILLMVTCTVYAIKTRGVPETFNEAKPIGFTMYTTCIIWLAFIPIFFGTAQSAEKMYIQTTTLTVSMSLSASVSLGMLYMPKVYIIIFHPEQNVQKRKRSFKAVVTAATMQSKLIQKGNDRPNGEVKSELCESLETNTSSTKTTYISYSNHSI
row,SMILES,z-score
1,c1ccc(CN2CCN(c3nc(-c4ccccc4)nc4ccccc34)CC2)cc1,-0.0494
2,CCc1c(O)nc(SCC(=O)N2CCOCC2)n(-c2ccccc2)c1=O,0.116
3,CCOC(=O)c1c(-c2ccccc2)oc2ccc(O)c(CN(C)C)c12,-0.204
4,CCN1CCN(CCCNC(=O)c2cn(CCOC)c(=O)c3c2c2ccccc2n3C)CC1,0.403
5,COc1cc(/C=N/NC(=O)c2cccnc2)ccc1OS(=O)(=O)c1cc(C)ccc1C,0.563
6,Cc1cccc(NS(=O)(=O)c2ccc3c(c2)OCCO3)c1,2.76
7,COCc1nnc(NC(=O)CSc2ccccc2)s1,-0.188
8,CCn1c(C)nc2cc(C(=O)N=Nc3c(O)[nH]c4ccccc34)ccc21,0.0669
9,O=C(NCc1ccco1)c1cccc(NS(=O)(=O)c2cccc(F)c2)c1,-0.114
10,COc1ccc(/C=C/C(=O)N2CCCc3ccccc32)cc1,-0.682
11,COc1cc(NC(=O)Nc2cccc(Cl)c2)c(OC)cc1NC(=O)CN1CCCCC1,0.116
12,CCOc1nc(CC)nc(NC(=O)NS(=O)(=O)c2ccccc2Cl)n1,-0.0447
13,CN(C)S(=O)(=O)c1cccc(NC(=O)c2cncc(Br)c2)c1,-0.0939
14,CCN(CC)S(=O)(=O)c1cccc(-c2nnc(SCCOc3ccccc3)o2)c1,-0.281
15,O=C(CSc1nccn1-c1ccccc1)Nc1ccc2c(c1)OCO2,-0.165
16,COc1ccccc1OCCN1C(=O)S/C(=C\c2ccco2)C1=O,0.387
17,CCc1cc2c(=O)n3c(nc2s1)-c1[nH]c2ccc(OC)cc2c1CC3,-0.132
18,CCOc1cc(/C=C/c2ccc3cccc([N+](=O)[O-])c3n2)ccc1O,-0.315
19,Cc1ccc(CSCCNS(C)(=O)=O)cc1,0.343
20,CCCCN(CC)CCNC(=O)c1cc2c(C)nc3ccccc3c2o1,-1.67
21,Cc1ccc(C(=O)NCC(=O)NCC(=O)OCc2ccc(Oc3ccc([N+](=O)[O-])cc3)cc2)cc1,-0.145
22,CCCn1c(=O)c2ccccc2n2c(SCCOc3ccccc3F)nnc12,-0.646
23,O=C(/C=C/c1ccco1)N1CCN(c2ccccc2)CC1,-1.5

row,SMILES,z-score
1,Cn1c(N2CCCC2)nc2c1c(=O)n(Cc1cccc(F)c1)c(=O)n2C,0.0047
2,Cc1cc(C(=O)Nc2ccc3c(c2)OCCO3)c(C)o1,0.31
3,C/C(Cn1nnc([N+](=O)[O-])n1)=N\NC(=O)c1ccccc1,0.221
4,O=C(c1cccc(Cl)c1)N(Cc1cccs1)C1CCS(=O)(=O)C1 (configuration not stated),0.871
5,O=C(CCS(=O)(=O)Cc1ccc(Cl)cc1)NCCCN1CCN(c2ccccc2F)CC1,-0.0145
6,CCSc1nnc(NC(=O)c2csc3c2CCCC3)s1,-0.196
7,O=C(CSc1nnc(-c2cccnc2)n1CCc1ccccc1)NCc1ccccc1,0.0315
8,O=C(NCc1ccccn1)c1cc(-c2ccccc2)on1,-0.334
9,COc1ccccc1C(=O)NCC(=O)OCc1ccc(Br)cc1,-0.718
10,Cc1cccc2cc(CN(Cc3ccco3)C(=O)c3cccs3)c(=O)[nH]c12,-0.486
11,CCOC(=O)c1nn(-c2ccccc2C)c2nc(-c3ccc(C)cc3)c(C#N)c(=O)n12,0.0745
12,CCC(C)[C@@H](C(=O)Nc1ccc(OC)c(OC)c1)N1Cc2ccccc2C1=O (some centres not stated),0.226
13,CN(C)CCOCCOc1ccccc1-c1ccccc1,-0.227
14,COc1cccc(NC(=O)Nc2c(C)n(C)n(-c3ccccc3)c2=O)c1,-0.172
15,CCOC(=O)Cc1csc(NC(=O)c2c(O)c3ccccc3n(CC(C)C)c2=O)n1,-0.46
16,COc1ccc(NC(=O)COc2nc(N(C)C)nc(N(C)C)n2)cc1,0.158
17,Cc1cc(Cl)ccc1OCC(=O)OC(C)C(=O)N(C)C (configuration not stated),-0.157
18,CSc1nc2ccc(NS(=O)(=O)c3ccc(Cl)s3)cc2s1,-0.371
19,O=C(O)Cc1cc2c(s1)CCCCC2,0.196
20,CC(=O)Nc1ccc(OCC(O)CN2CCN(c3ccc(Cl)cc3)CC2)cc1 (configuration not stated),0.132
21,CCc1ccc(/C=N/NC(=O)c2cc(C3CC3)nc3ccc(Br)cc23)s1,0.868
22,COC(=O)c1c(NC(=O)C2c3ccccc3Oc3ccccc32)sc(C)c1C,0.174
23,COc1ccc(CC(=O)N2CCN(c3ccccn3)CC2)cc1,-0.104

row,SMILES,z-score
1,Cc1ccc2c(c1)Sc1ccccc1CC2=O,-0.161
2,COc1cc(S(=O)(=O)NCC2CCCO2)c(OC)cc1Cl (configuration not stated),0.819
3,CC1Cc2ccccc2N1CC(=O)NC(=O)NCc1ccco1 (configuration not stated),0.085
4,Cc1ccc(NC2=C([N+](=O)[O-])CS(=O)(=O)C2)cc1,-0.072
5,O=c1cccc(-c2ccccc2)[nH]1,-0.0125
6,CCOc1ccc(C(=O)NCc2ccccc2OC)cc1,-0.206
7,CCc1ccccc1NS(=O)(=O)c1cc(C)ccc1OC,-0.946
8,COc1ccccc1N(CC(=O)NC1CCCCC1)C(=O)c1csnn1,0.73
9,O=c1oc2c3c4c(cc2s1)CCCN4CCC3,-0.281
10,COc1ccccc1C(=O)NCC(c1cccnc1)N(C)C (configuration not stated),0.448
11,COc1ccc(/C=C2\CCn3c2nc2cc(C(=O)O)ccc2c3=O)cc1O,-0.197
12,CCc1ccccc1OCc1nc2ccc(S(=O)(=O)N3CCOCC3)cc2[nH]1,-0.658
13,COCCCn1c(C)nc2c(c1=O)c1nc3ccccc3nc1n2CCc1ccccc1,-1.08
14,Cc1cccc(NC(=O)c2cccnc2)c1,-0.135
15,CC(=O)Nc1ccccc1Nc1cc(C#N)c(C#N)cc1[N+](=O)[O-],-0.00232
16,CCc1nc(SCC(=O)NCc2ccc(F)cc2)c2c(=O)n(C)c(=O)n(C)c2n1,0.254
17,COc1ccc2nc(N3C(=O)CC(Cc4ccc(Cl)cc4)C3=O)sc2c1 (configuration not stated),-0.21
18,O=C(/C=C/c1ccc(F)cc1)Nc1cc(S(=O)(=O)N2CCOCC2)ccc1N1CCCC1,-0.192
19,CCCCC(=O)Nc1cccc(NC(=O)C(C)C)c1,-0.297
20,CCCCNC(=O)CNC(=S)N(Cc1ccccc1)Cc1cccnc1,-0.224
21,COc1ccccc1/C=C/C1=NC(=C\N(C)C)/C(=O)O1,-0.339
22,Cc1cc(N2CCOCC2)nc(SCc2c(Cl)cccc2Cl)n1,-0.0363
23,CCC(=O)Nc1ccc(Cl)c(NC(=O)C(C)C)c1,0.418

row,SMILES,z-score
1,CCOc1ccc(S(=O)(=O)N(CCO)CCO)cc1-c1nc2c(C(C)(C)C)nn(C)c2c(=O)[nH]1,-0.717
2,O=C1C(C=Nc2ccccc2)=C(O)c2ccccc21,0.275
3,COc1ccccc1-c1nnc(SCC(=O)N2CCC(C)CC2)o1,0.803
4,CCc1ccc(OCC(=O)NC(NC(=S)Nc2ccc(C)cc2C)C(Cl)(Cl)Cl)cc1 (configuration not stated),0.136
5,Cc1cccc(NC(=S)NC2CC3CCCC(C2)N3CC(C)C)c1 (configuration not stated),0.663
6,Nc1ccc(C(=O)Nc2nc3ccccc3s2)cc1,-0.363
7,Cc1ccc(-c2oc3ncnc(N)c3c2-c2ccc(C)cc2)cc1,-0.0208
8,Cc1cc(NC(=O)CSc2ncccn2)no1,0.325
9,COc1ccc(Cl)c(NC(=O)Nc2c(C)n(-c3ccccc3)c(=O)n2C)c1,1.18
10,CC(C)COc1ccc(C(=O)N/C(=C\c2cccc([N+](=O)[O-])c2)C(=O)OC(C)C)cc1,-0.33
11,Nc1c(NC(=O)CC[n+]2ccccc2)cccc1[N+](=O)[O-],-0.292
12,CNc1nc(SCc2ccccc2)nc(N2CCOCC2)n1,-0.587
13,S=c1[nH]nc(Cc2sc(-c3ccccc3)nc2-c2ccccc2)o1,0.186
14,COc1cc(OC)cc(C(=O)N(CN2CCCC2=O)c2ccccc2OC)c1,-0.105
15,CCOC(=O)c1c(-c2ccccc2)csc1NC(=S)N(CC)CC,0.121
16,O=C(Nc1cccnc1)Nc1ccc(F)c(Cl)c1,0.00894
17,CCOc1ccc(N2C(N)=NC(N)=NC2(C)C)cc1,-0.0608
18,CCc1ccc(N(C(=O)CNC(=O)c2cccs2)C(C(=O)NC(C)(C)C)c2cc(OC)c(OC)c(OC)c2)cc1 (configuration not stated),-0.29
19,C[N+]1(CC(O)COc2ccccc2)CCN(C(=O)c2ccc([N+](=O)[O-])cc2)CC1 (configuration not stated),-0.448
20,COc1cc(/C=N/NC(=O)C(C)n2nnc3ccccc32)ccc1O (configuration not stated),-0.414
21,COC(=O)c1cccc(N2C(=O)C3CC=CCC3C2=O)c1 (configuration not stated),0.154
22,Cc1ccc(-n2c(-c3cccnc3)n[nH]c2=S)c(C)c1,-0.0849
23,COc1ccc(NC(=O)c2ocnc2C)cc1OC,-0.369

row,SMILES,z-score
1,CCOC(=O)N1CCN(C(=S)Nc2cc(OC)c(OC)cc2C(=O)OC)CC1,-0.261
2,O=C(CN1CCc2ccccc2C1)Nc1cc(S(=O)(=O)N2CCOCC2)ccc1N1CCOCC1,-1.04
3,Cc1cccc(OCCCC(=O)Nc2ccc(N(C)C)cc2)c1,-0.175
4,O=C(NC1CCCCC1)NC1CC2CCC(C1)N2C(=O)NC1CCCCC1 (configuration not stated),0.494
5,CCNc1ccc(Br)cc(C(=O)/C=C/c2ccc(Cl)cc2Cl)c1=O,0.0685
6,CC(OC(=O)c1ccc(S(=O)(=O)NCc2ccco2)cc1)C(=O)Nc1ncc(Cl)cc1Cl (configuration not stated),-0.205
7,Cn1c(C(=O)OC(C(=O)NC2CCCC2)c2ccncc2)cc2sccc21 (configuration not stated),-0.512
8,CCC(C)NS(=O)(=O)c1ccc(OCC(=O)Nc2ccc3c(c2)OCCO3)cc1 (configuration not stated),-0.437
9,O=C(NCc1cccc(Cl)c1)c1cccnc1,-0.0529
10,Cn1ccs/c1=N\S(=O)(=O)c1ccc(C(C)(C)C)cc1,0.371
11,Cc1nn(-c2ccccc2)c(C)c1NS(=O)(=O)c1ccccc1,0.244
12,CC1(C)CC(C(CC(=O)Nc2nccs2)c2ccccc2)CCO1 (configuration not stated),-0.0568
13,CCOc1ccc(Cc2n[nH]c(=S)n2N)cc1,-0.213
14,c1ccc(N2CCN(c3c4c(nc5ncnn35)CCC4)CC2)cc1,-0.139
15,Cc1ccc(C(NC(=O)N2CCOCC2)C(Cl)(Cl)Cl)cc1F (configuration not stated),-0.0287
16,CC(=O)Nc1nnc(SCC(=O)N2CCN(Cc3ccccc3)CC2)s1,-0.0425
17,O=c1cc(O)n(-c2ccccc2)c(=S)[nH]1,-0.0388
18,Cc1cc(-c2nn3c(C)nnc3s2)ccc1NC(=O)C(C)(C)C,0.038
19,CCOC(=O)C1CCCN(C(=O)/C=C/c2ccccc2[N+](=O)[O-])C1 (configuration not stated),-0.101
20,Cc1ccc(NC(=O)C2COc3ccccc3O2)nc1 (configuration not stated),0.189
